Each value is the number of isolates with that result; steps that no isolate showed are left empty. Clinical S. Paratyphi A isolates, EUCAST 2021: MIC by Sensititre broth microdilution (mg/L, higher = less susceptible) and pefloxacin 5 µg disc zone (mm, larger = more susceptible). Call: the source's susceptible or wild type [S] / resistant [R]; none for gatifloxacin. Most isolates are closely related and were not sequenced.

For assay [1], the system named is Salmonella enterica serovar Paratyphi A with GyrA S83F (32 isolates). The experiment in a line: Isolates counted by MIC; Sensititre broth microdilution, or disc diffusion on Mueller-Hinton agar, by EUCAST 2021. (Dilution methods test growth across graded concentrations, often in twofold steps.)
Assay [2] has as its system Salmonella enterica serovar Paratyphi A with GyrA not given (244 isolates). The assay is described as above.
Assay [3] relates to Salmonella enterica serovar Paratyphi A with GyrA S83F (32 isolates). The experiment in a line: Isolates counted by inhibition zone diameter, 5 µg disc; Sensititre broth microdilution, or disc diffusion on Mueller-Hinton agar, by EUCAST 2021.
The subject of assay [4] is Salmonella enterica serovar Paratyphi A with GyrA not given (244 isolates). The description is as above.
Setting [5] is: inhibition zone diameter: 12 mm.
Where [6] appears, read: inhibition zone diameter: 13 mm.
Where [7] appears, read: inhibition zone diameter: 14 mm.
The mark [8] stands for this setting: inhibition zone diameter: 15 mm.
The mark [9] stands for this setting: inhibition zone diameter: 16 mm.
Setting [10] is: inhibition zone diameter: 19 mm.

In the case of `CC1(C)S[C@@H]2[C@H](NC(=O)[C@H](N)c3ccccc3)C(=O)N2[C@H]1C(=O)O` [ampicillin], the results for the isolate count in assay [1] (MIC: ≤4 mg/L), in assay [2] (MIC: 8 mg/L) and in assay [2] (MIC: ≤4 mg/L) were 32 [S], 1 [S] and 243 [S], respectively.
Regarding `CC[C@H]1OC(=O)[C@H](C)[C@@H](O[C@H]2C[C@@](C)(OC)[C@@H](O)[C@H](C)O2)[C@H](C)[C@@H](O[C@@H]2O[C@H](C)C[C@H](N(C)C)[C@H]2O)[C@](C)(O)C[C@@H](C)CN(C)[C@H](C)[C@@H](O)[C@]1(C)O` [azithromycin], the isolate count was 9 [S] in assay [1] (MIC: 8 mg/L); 23 [S] in assay [1] (MIC: 16 mg/L); 81 [S] in assay [2] (MIC: 8 mg/L); 157 [S] in assay [2] (MIC: 16 mg/L); 6 in assay [2] (MIC: 32 mg/L).
With `CO/N=C(\C(=O)N[C@@H]1C(=O)N2C(C(=O)[O-])=C(C[N+]3(C)CCCC3)CS[C@H]12)c1csc(N)n1` [cefepime], the isolate count is 32 [S] in assay [1] (MIC: ≤1 mg/L), 1 [S] in assay [2] (MIC: 2 mg/L) and 243 [S] in assay [2] (MIC: ≤1 mg/L).
Regarding `C=CC1=C(C(=O)O)N2C(=O)[C@@H](NC(=O)/C(=N\OCC(=O)O)c3csc(N)n3)[C@H]2SC1` [cefixime], the isolate count in assay [1] (MIC: ≤0.5 mg/L) was 32 [S]; in assay [2] (MIC: 1 mg/L), 6 [S]; in assay [2] (MIC: ≤0.5 mg/L), 238 [S].
Taken in the same sequence, the figures for `CO/N=C(\C(=O)N[C@@H]1C(=O)N2C(C(=O)O)=C(COC(C)=O)CS[C@H]12)c1csc(N)n1` [cefotaxime] were 32 [S], 1 [S] and 243 [S].
Regarding `CC(C)(O/N=C(\C(=O)N[C@@H]1C(=O)N2C(C(=O)[O-])=C(C[n+]3ccccc3)CS[C@H]12)c1csc(N)n1)C(=O)O` [ceftazidime], the values for the isolate count in assay [1] (MIC: ≤0.5 mg/L), in assay [2] (MIC: 1 mg/L) and in assay [2] (MIC: ≤0.5 mg/L) were 32 [S], 4 [S] and 240 [S], respectively.
With `CO/N=C(\C(=O)N[C@@H]1C(=O)N2C(C(=O)O)=C(CSc3nc(=O)c(O)nn3C)CS[C@H]12)c1csc(N)n1` [ceftriaxone], the isolate count was 32 [S] in assay [1] (MIC: ≤0.5 mg/L) and 244 [S] in assay [2] (MIC: ≤0.5 mg/L).
Turning to `O=C(N[C@H](CO)[C@H](O)c1ccc([N+](=O)[O-])cc1)C(Cl)Cl` [chloramphenicol], the figures for the isolate count in assay [1] (MIC: ≤8 mg/L), in assay [2] (MIC: 16 mg/L) and in assay [2] (MIC: ≤8 mg/L) were 32 [S], 33 [R] and 211 [S], respectively.
For the compound `O=C(O)c1cn(C2CC2)c2cc(N3CCNCC3)c(F)cc2c1=O` [ciprofloxacin], the isolate count in assay [1] (MIC: 0.5 mg/L) was 7 [R]; in assay [1] (MIC: 1 mg/L), 25 [R]; in assay [2] (MIC: 0.25 mg/L) it was 7 [R]; in assay [2] (MIC: 0.5 mg/L) it was 153 [R]; in assay [2] (MIC: 1 mg/L), 81 [R]; in assay [2] (MIC: 4 mg/L), 1 [R]. Besides, the isolate count in assay [2] (MIC: ≤0.03 mg/L) is 2 [S].
For the compound `COc1c(N2CCNC(C)C2)c(F)cc2c(=O)c(C(=O)O)cn(C3CC3)c12` (centres undefined) [gatifloxacin], the isolate count turned out to be 32 in assay [1] (MIC: 0.5 mg/L); 2 in assay [2] (MIC: 0.06 mg/L); 6 in assay [2] (MIC: 0.25 mg/L); 218 in assay [2] (MIC: 0.5 mg/L); 16 in assay [2] (MIC: 1 mg/L); 2 in assay [2] (MIC: 2 mg/L).
For the compound `C[C@@H](O)[C@H]1C(=O)N2C(C(=O)O)=C(S[C@@H]3CN[C@H](C(=O)N(C)C)C3)[C@H](C)[C@H]12` [meropenem], the isolate count in assay [1] (MIC: ≤0.06 mg/L) was 32 [S]; in assay [2] (MIC: 0.12 mg/L), 4 [S]; in assay [2] (MIC: 0.25 mg/L), 1 [S]; in assay [2] (MIC: ≤0.06 mg/L), 239 [S].
On to `CCn1cc(C(=O)O)c(=O)c2cc(F)c(N3CCN(C)CC3)cc21` [pefloxacin], for which the isolate count is 2 [R] in assay [3] (setting [5]); 10 [R] in assay [3] (setting [6]); 9 [R] in assay [3] (setting [7]); 6 [R] in assay [3] (setting [8]); 4 [R] in assay [3] (setting [9]); 1 [R] in assay [3] (setting [10]). Besides, the isolate count is 5 [R] in assay [4] (inhibition zone diameter: 10 mm); 19 [R] in assay [4] (inhibition zone diameter: 11 mm); 99 [R] in assay [4] (setting [5]); 63 [R] in assay [4] (setting [6]); 34 [R] in assay [4] (setting [7]); 13 [R] in assay [4] (setting [8]). The isolate count in assay [4] (setting [9]) was 2 [R]; in assay [4] (inhibition zone diameter: 17 mm), 4 [R]; in assay [4] (inhibition zone diameter: 18 mm) it was 2 [R]; in assay [4] (setting [10]) it was 1 [R]; in assay [4] (inhibition zone diameter: 28 mm), 2 [S].

(Values after the supplement of paper PMC10132074.)
